The test system of experiment [1] is Rhinovirus. Description: microbe, parasite or virus in culture. Format: cell-based. The conditions noted are these: Enterovirus.
In experiment [2] the test system is Coxsackie B3. Description: microbe, parasite or virus in culture. The settings on record: Enterovirus B, B3, read-out: Coxsackie B3 EC50.
Experiment [3] deals with Coxsackie B1. Description: organism not typed. The conditions noted are these: read-out: Coxsackie B1 EC50.
[4] abbreviates: HRV14, read-out: Rhino HRV14 EC50.
The mark [5] stands for this setting: HRV21, read-out: Rhino HRV21 EC50.
[6] abbreviates: HRV71, read-out: Rhino HRV71 EC50.

Here are results for 21 compounds from patent US9890133B2 (priority 2011, dated 2018).

Molecules are shown by their SMILES. Converted amounts (≈) assume the structure as drawn. Where two headings read alike, the source gives them in different places.

Consider `CC(C)c1ccc2c(c1)OC1(O)c3cccc(N)c3C(=O)C21NC(=O)c1sc2cc(F)ccc2c1Cl` (stereo not drawn) [Example 269, N-(1-Amino-4b-hydroxy-7-isopropyl-10-oxo-9b,10-dihydro-4bH-indeno[1,2-b]benzofuran-9b-yl)-3-chloro-6-fluorobenzo[b]thiophene-2-carboxamide], for which the EC50 in experiment [1] (setting [4]) was found to be 0.036 µg/mL (≈ 0.0688 µM); in experiment [2], 0.035 µg/mL (≈ 0.0669 µM); in experiment [3], 0.018 µg/mL (≈ 0.0344 µM).

Turning to `Cc1ccc2c(Cl)c(C(=O)NC34C(=O)c5c(N)cccc5C3(O)Oc3cc(C(C)C)ccc34)sc2c1` (stereo not drawn) [Example 270, N-(1-Amino-4b-hydroxy-7-isopropyl-10-oxo-9b,10-dihydro-4bH-indeno[1,2-b]benzofuran-9b-yl)-3-chloro-6-methylbenzo[b]thiophene-2-carboxamide], the values for the EC50 in experiment [1] (setting [4]), in experiment [2] and in experiment [3] were 0.039 µg/mL (≈ 0.0751 µM), 0.036 µg/mL (≈ 0.0694 µM) and 0.03 µg/mL (≈ 0.0578 µM), respectively.

As for `Cc1nn(C)c2ncc(C(=O)NC34C(=O)c5c(N)cccc5C3(O)Oc3cc(C(C)C)ccc34)cc12` (stereo not drawn) [Example 271, N-(1-Amino-4b-hydroxy-7-isopropyl-10-oxo-9b,10-dihydro-4bH-indeno[1,2-b]benzofuran-9b-yl)-1,3-dimethyl-1H-pyrazolo[3,4-b]pyridine-5-carboxamide], the EC50 was less than 0.01 µg/mL in experiment [1] (setting [4]); less than 1 µg/mL in experiment [1] (setting [5]); less than 1 µg/mL in experiment [1] (setting [6]); less than 0.01 µg/mL in experiment [2]; less than 0.01 µg/mL in experiment [3].

On to `CC(C)c1ccc2c(c1)OC1(O)c3cccc(N)c3C(=O)C21NC(=O)c1ccc2nccn2c1` (stereo not drawn) [Example 272, N-(1-Amino-4b-hydroxy-7-isopropyl-10-oxo-9b,10-dihydro-4bH-indeno[1,2-b]benzofuran-9b-yl)imidazo[1,2-a]pyridine-6-carboxamide], for which the EC50 is less than 0.01 µg/mL in experiment [1] (setting [4]); less than 1 µg/mL in experiment [1] (setting [5]); less than 1 µg/mL in experiment [1] (setting [6]); less than 0.01 µg/mL in experiment [2]; less than 0.01 µg/mL in experiment [3].

`CC(C)c1ccc2c(c1)OC1(O)c3cccc(N)c3C(=O)C21NC(=O)c1cc2ncccn2n1` (stereo not drawn) [Example 273, N-(1-Amino-4b-hydroxy-7-isopropyl-10-oxo-9b,10-dihydro-4bH-indeno[1,2-b]benzofuran-9b-yl)pyrazolo[1,5-a]pyrimidine-2-carboxamide]: the EC50 in experiment [1] (setting [4]) is less than 0.01 µg/mL; in experiment [1] (setting [5]), less than 1 µg/mL; in experiment [1] (setting [6]), less than 1 µg/mL; in experiment [2], less than 0.01 µg/mL; in experiment [3], less than 0.01 µg/mL.

Consider `Cc1c(C(=O)NC23C(=O)c4c(N)cccc4C2(O)Oc2cc(C(C)C)ccc23)sc2ccccc12` (stereo not drawn) [Example 274, N-(1-Amino-4b-hydroxy-7-isopropyl-10-oxo-9b,10-dihydro-4bH-indeno[1,2-b]benzofuran-9b-yl)-3-methylbenzo[b]thiophene-2-carboxamide], for which the EC50 in experiment [1] (setting [4]) is less than 0.01 µg/mL; in experiment [1] (setting [6]) it was less than 1 µg/mL; in experiment [2] it was 0.027 µg/mL (≈ 0.0557 µM); in experiment [3], less than 0.01 µg/mL.

For the compound `CC(C)c1ccc2c(c1)OC1(O)c3cccc(N)c3C(=O)C21NC(=O)c1cnc2ccccc2n1` (stereo not drawn) [Example 275, N-(1-Amino-4b-hydroxy-7-isopropyl-10-oxo-9b,10-dihydro-4bH-indeno[1,2-b]benzofuran-9b-yl)quinoxaline-2-carboxamide], the EC50 in experiment [1] (setting [4]), in experiment [2] and in experiment [3] was less than 0.01 µg/mL each time.

Regarding `CC(C)c1ccc2c(c1)OC1(O)c3cccc(N)c3C(=O)C21NC(=O)c1ccnnc1` (stereo not drawn) [Example 276, N-(1-Amino-4b-hydroxy-7-isopropyl-10-oxo-9b,10-dihydro-4bH-indeno[1,2-b]benzofuran-9b-yl)pyridazine-4-carboxamide], the EC50 in experiment [1] (setting [4]) was less than 0.01 µg/mL; in experiment [1] (setting [5]), less than 1 µg/mL; in experiment [1] (setting [6]), less than 1 µg/mL; in experiment [2], less than 0.01 µg/mL; in experiment [3], less than 0.01 µg/mL.

For `CC(C)c1ccc2c(c1)OC1(O)c3cccc(N)c3C(=O)C21NC(=O)c1ccc2nccnc2c1` (stereo not drawn) [Example 277, N-(1-Amino-4b-hydroxy-7-isopropyl-10-oxo-9b,10-dihydro-4bH-indeno[1,2-b]benzofuran-9b-yl)quinoxaline-6-carboxamide], the results for the EC50 in experiment [1] (setting [4]), in experiment [2] and in experiment [3] were 0.026 µg/mL (≈ 0.0557 µM), less than 0.01 µg/mL and less than 0.01 µg/mL, respectively.

Regarding `CC(C)c1ccc2c(c1)OC1(O)c3cccc(N)c3C(=O)C21NC(=O)c1ccc2nnnn2c1` (stereo not drawn) [Example 278, N-(1-Amino-4b-hydroxy-7-isopropyl-10-oxo-9b,10-dihydro-4bH-indeno[1,2-b]benzofuran-9b-yl)tetrazolo[1,5-a]pyridine-6-carboxamide], the EC50 was less than 0.01 µg/mL in experiment [1] (setting [4]); less than 1 µg/mL in experiment [1] (setting [5]); less than 1 µg/mL in experiment [1] (setting [6]); less than 0.01 µg/mL in experiment [2]; less than 0.01 µg/mL in experiment [3].

With `CC(C)c1ccc2c(c1)OC1(O)c3cccc(N)c3C(=O)C21NC(=O)c1cccn2nnnc12` (stereo not drawn) [Example 279, N-(1-Amino-4b-hydroxy-7-isopropyl-10-oxo-9b,10-dihydro-4bH-indeno[1,2-b]benzofuran-9b-yl)tetrazolo[1,5-a]pyridine-8-carboxamide], the EC50 was less than 0.01 µg/mL in experiment [1] (setting [4]); less than 1 µg/mL in experiment [1] (setting [5]); less than 1 µg/mL in experiment [1] (setting [6]); less than 0.01 µg/mL in experiment [2]; less than 0.01 µg/mL in experiment [3].

On to `Cc1ccn2cc(C(=O)NC34C(=O)c5c(N)cccc5C3(O)Oc3cc(C(C)C)ccc34)nc2c1` (stereo not drawn) [Example 280, N-(1-Amino-4b-hydroxy-7-isopropyl-10-oxo-9b,10-dihydro-4bH-indeno[1,2-b]benzofuran-9b-yl)-7-methylimidazo[1,2-a]pyridine-2-carboxamide], for which the EC50 in experiment [1] (setting [4]), in experiment [2] and in experiment [3] was less than 0.01 µg/mL throughout.

For the compound `Cc1ccnc2nc(C(=O)NC34C(=O)c5c(N)cccc5C3(O)Oc3cc(C(C)C)ccc34)nn12` (stereo not drawn) [Example 281, N-(1-Amino-4b-hydroxy-7-isopropyl-10-oxo-9b,10-dihydro-4bH-indeno[1,2-b]benzofuran-9b-yl)-7-methyl-[1,2,4]triazolo[1,5-a]pyrimidine-2-carboxamide], the EC50 in experiment [1] (setting [4]), in experiment [2] and in experiment [3] was less than 0.01 µg/mL throughout.

As to `Cc1cc(C)n2ncc(C(=O)NC34C(=O)c5c(N)cccc5C3(O)Oc3cc(C(C)C)ccc34)c2n1` (stereo not drawn) [Example 282, N-(1-Amino-4b-hydroxy-7-isopropyl-10-oxo-9b,10-dihydro-4bH-indeno[1,2-b]benzofuran-9b-yl)-5,7-dimethylpyrazolo[1,5-a]pyrimidine-3-carboxamide], the results for the EC50 in experiment [1] (setting [4]), in experiment [2] and in experiment [3] were 0.011 µg/mL (≈ 0.0227 µM), 0.011 µg/mL (≈ 0.0227 µM) and less than 0.01 µg/mL, respectively.

As for `CC(C)c1ccc2c(c1)OC1(O)c3cccc(N)c3C(=O)C21NC(=O)c1cc(C(C)C)nc2c1cnn2C(C)C` (stereo not drawn) [Example 284, N-(1-Amino-4b-hydroxy-7-isopropyl-10-oxo-9b,10-dihydro-4bH-indeno[1,2-b]benzofuran-9b-yl)-1,6-diisopropyl-1H-pyrazolo[3,4-b]pyridine-4-carboxamide], the EC50 in experiment [1] (setting [4]) was 0.028 µg/mL (≈ 0.0519 µM); in experiment [2], 0.016 µg/mL (≈ 0.0296 µM); in experiment [3], less than 0.01 µg/mL.

As to `CC(C)c1ccc2c(c1)OC1(O)c3cccc(N)c3C(=O)C21NC(=O)c1cn2cccnc2n1` (stereo not drawn) [Example 285, N-(1-Amino-4b-hydroxy-7-isopropyl-10-oxo-9b,10-dihydro-4bH-indeno[1,2-b]benzofuran-9b-yl)imidazo[1,2-a]pyrimidine-2-carboxamide], the EC50 in experiment [1] (setting [4]) is less than 0.01 µg/mL; in experiment [1] (setting [5]) it was less than 1 µg/mL; in experiment [2], less than 0.01 µg/mL; in experiment [3], less than 0.01 µg/mL.

As to `CC(C)c1ccc2c(c1)OC1(O)c3cccc(N)c3C(=O)C21NC(=O)c1cc2ccccc2c(=O)[nH]1` (stereo not drawn) [Example 286, N-(1-Amino-4b-hydroxy-7-isopropyl-10-oxo-9b,10-dihydro-4bH-indeno[1,2-b]benzofuran-9b-yl)-1-oxo-1,2-dihydroisoquinoline-3-carboxamide], the EC50 in experiment [1] (setting [4]) is less than 0.01 µg/mL; in experiment [1] (setting [5]), less than 1 µg/mL; in experiment [1] (setting [6]), less than 1 µg/mL; in experiment [2] it was less than 0.01 µg/mL; in experiment [3], less than 0.01 µg/mL.

As to `Cc1nc(C(=O)NC23C(=O)c4c(N)cccc4C2(O)Oc2cc(C(C)C)ccc23)c2ccccn12` (stereo not drawn) [Example 287, N-(1-Amino-4b-hydroxy-7-isopropyl-10-oxo-9b,10-dihydro-4bH-benzo[d]indeno[1,2-b]furan-9b-yl)-3-methylimidazo[1,5-a]pyridine-1-carboxamide], the EC50 in experiment [1] (setting [4]), in experiment [2] and in experiment [3] was less than 0.01 µg/mL each time.

On to `CC(C)c1ccc2c(c1)OC1(O)c3cccc(N)c3C(=O)C21NC(=O)c1[nH]nc2ccccc12` (stereo not drawn) [Example 288, N-(1-Amino-4b-hydroxy-7-isopropyl-10-oxo-9b,10-dihydro-4bH-benzo[d]indeno[1,2-b]furan-9b-yl)-2H-indazole-3-carboxamide], for which the EC50 in experiment [1] (setting [4]) was less than 0.01 µg/mL; in experiment [1] (setting [6]), less than 1 µg/mL; in experiment [2], less than 0.01 µg/mL; in experiment [3], less than 0.01 µg/mL.

As to `Cc1c(C(=O)NC23C(=O)c4c(N)cccc4C2(O)Oc2cc(C(C)C)ccc23)cnc2ccnn12` (stereo not drawn) [Example 289, N-(1-Amino-4b-hydroxy-7-isopropyl-10-oxo-9b,10-dihydro-4bH-indeno[1,2-b]benzofuran-9b-yl)-7-methylpyrazolo[1,5-a]pyrimidine-6-carboxamide], the EC50 in experiment [1] (setting [4]) is less than 0.01 µg/mL; in experiment [1] (setting [5]), less than 1 µg/mL; in experiment [1] (setting [6]), less than 1 µg/mL; in experiment [2], less than 0.01 µg/mL; in experiment [3] it was less than 0.01 µg/mL.

Take `CC(C)c1ccc2c(c1)OC1(O)c3cccc(N)c3C(=O)C21NC(=O)c1nc2ccccc2[nH]1` (stereo not drawn) [Example 290, N-(1-Amino-4b-hydroxy-7-isopropyl-10-oxo-9b,10-dihydro-4bH-indeno[1,2-b]benzofuran-9b-yl)-1H-benzo[d]imidazole-2-carboxamide]: the EC50 is less than 0.01 µg/mL in experiment [1] (setting [4]); less than 1 µg/mL in experiment [1] (setting [5]); less than 1 µg/mL in experiment [1] (setting [6]); less than 0.01 µg/mL in experiment [2]; less than 0.01 µg/mL in experiment [3].

By EC50 is commonly meant the concentration that produces a half-maximal response.
